The text below walks through data of the supplement of paper PMC12355420.

Counter-ions that a name gives are not always drawn. Some of the results follow. No stated cut-off is given here; in the data, active = 0.5 or less and inactive = the rest. Most values come without repeats; read them as rough.

Holding throughout (settings): 50 µM; 24 h
Assay [1] relates to HeLa VPS33A reporter cells. Put plainly: relative cell viability (CellMask signal) vs DMSO (fraction of DMSO); higher = less cytotoxic.
Assay [2] deals with HeLa VPS33A R498W KI + HA-SDC1-FLAG. Nature of the assay: relative GAG core protein HA-SDC1 amount per cell number vs DMSO (fraction of DMSO); higher = more SDC1 (GAG core protein).
In assay [3] the test system is HeLa VPS33A KO + NLuc-VPS33A R498W. Nature of the assay: relative mutant VPS33A R498W amount (NanoLuc luminescence) vs DMSO (fraction of DMSO); HeLa model of a glycosaminoglycan (GAG) storage disease; KI is knock-in and KO knock-out; SDC1 is syndecan 1; higher = higher mutant VPS33A level.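 Further: screen of an FDA-approved drug library, NanoLuc luminescence read after lysing the treated cells, taken as a measure of mutant VPS33A protein stability.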
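Wherever relative GAG core protein HA-SDC1 amount per cell number vs DMSO is given: HA-SDC1 level read out by In-Cell Western staining with an anti-HA antibody against the N-terminal tag, screening FDA-approved library drugs.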
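Wherever relative cell viability (CellMask signal) vs DMSO is given: primary screen of an FDA-approved drug library in HeLa reporter cells in 96-well format, CellMask signal normalized to DMSO-treated wells set as 1, under 0.5 deemed highly cytotoxic.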

On to `COC(=O)c1ccc(O)cc1` [Methylparaben], for which, in assay [1], the relative cell viability came to 0.994. Moreover, in assay [2], the “relative GAG core protein HA-SDC1 amount per cell number” value was inactive: 0.827. For the same compound, the “relative mutant VPS33A R498W amount” value in assay [3] was determined as 1.07.

As to `CC1(C)C[C@@H]1C(=O)N/C(=C\CCCCSC[C@H](N)C(=O)O)C(=O)O` [Cilastatin], the relative cell viability in assay [1] was determined as 1.03. Also, the “relative GAG core protein HA-SDC1 amount per cell number” value in assay [2] was inactive: 0.884. Also, in assay [3], the “relative mutant VPS33A R498W amount” value came out at 1.3.

As to `CO/N=C(\C(=O)N[C@@H]1C(=O)N2C(C(=O)O)=C(Cn3ccc(=N)n3CCO)CS[C@H]12)c1csc(N)n1` [Cefoselis Sulfate], in assay [1], the relative cell viability is 0.967. For the same compound, the “relative GAG core protein HA-SDC1 amount per cell number” value in assay [2] is inactive: 0.912. Also, the “relative mutant VPS33A R498W amount” value in assay [3] was determined as 1.6.

As for `COc1cccc(OC)c1C(=O)N[C@@H]1C(=O)N2[C@@H]1SC(C)(C)[C@@H]2C(=O)O` [Methicillin (sodium salt)], the relative cell viability in assay [1] came to 1.11. Besides, in assay [2], the “relative GAG core protein HA-SDC1 amount per cell number” value was inactive: 0.795. Further, the “relative mutant VPS33A R498W amount” value in assay [3] came out at 1.24.

In assay [1], `O=C(O)CCCCC1CCSS1` (racemic) [DL-α-Lipoic Acid] had a relative cell viability of 0.966. Also, in assay [2], the “relative GAG core protein HA-SDC1 amount per cell number” value is inactive: 0.935. The “relative mutant VPS33A R498W amount” value in assay [3] turned out to be 1.71.

On to `CN(C)CCCC1(c2ccc(F)cc2)OCc2cc(C#N)ccc21` (stereo unspecified) [Citalopram hydrobromide], for which, in assay [1], the relative cell viability turned out to be 0.964. For the same compound, in assay [2], the “relative GAG core protein HA-SDC1 amount per cell number” value was inactive: 0.583. Moreover, the “relative mutant VPS33A R498W amount” value in assay [3] worked out at 0.579.

For `NC(=O)N/N=C/c1ccc([N+](=O)[O-])o1` [Nitrofurazone], the relative cell viability in assay [1] is 0.818. Further, the “relative GAG core protein HA-SDC1 amount per cell number” value in assay [2] was active: 0.285. For the same compound, in assay [3], the “relative mutant VPS33A R498W amount” value stood at 0.316.

In assay [1], `CN(c1nccc(=O)[nH]1)C1CCN(c2nc3ccccc3n2Cc2ccc(F)cc2)CC1` [Mizolastine] displayed a relative cell viability of 1.21. Moreover, the “relative GAG core protein HA-SDC1 amount per cell number” value in assay [2] was inactive: 0.501. Moreover, in assay [3], the “relative mutant VPS33A R498W amount” value was determined as 0.287.

In assay [1], `COc1ccccc1OCC(O)COC(N)=O` (stereo unspecified) [Methyocarbamol] yielded a relative cell viability of 1.12. Besides, the “relative GAG core protein HA-SDC1 amount per cell number” value in assay [2] is inactive: 1.2. Also, the “relative mutant VPS33A R498W amount” value in assay [3] was 0.976.

In turn, `Cc1cc(/C=C/C#N)cc(C)c1Nc1ccnc(Nc2ccc(C#N)cc2)n1` [Rilpivirine] registered a relative cell viability in assay [1] of 1.19. In addition, the “relative GAG core protein HA-SDC1 amount per cell number” value in assay [2] is inactive: 1.01. Further, the “relative mutant VPS33A R498W amount” value in assay [3] amounted to 0.511.

`NC(=O)[C@@H](CCC(F)(F)F)N(Cc1ccc(-c2ncon2)cc1F)S(=O)(=O)c1ccc(Cl)cc1` registered a relative cell viability in assay [1] of 1.25. Moreover, the “relative GAG core protein HA-SDC1 amount per cell number” value in assay [2] was inactive: 0.883. The “relative mutant VPS33A R498W amount” value in assay [3] worked out at 1.18.

On to `O=c1ccc2cc3ccoc3cc2o1` [Psoralen], for which the relative cell viability in assay [1] came to 0.996. Besides, in assay [2], the “relative GAG core protein HA-SDC1 amount per cell number” value was inactive: 0.885. Also, the “relative mutant VPS33A R498W amount” value in assay [3] turned out to be 1.16.

Take `CO/N=C(\C(=O)N[C@@H]1C(=O)N2C(C(=O)OCOC(=O)C(C)(C)C)=C(/C=C\c3scnc3C)CS[C@H]12)c1csc(N)n1` [Cefditoren Pivoxil]: the relative cell viability in assay [1] worked out at 0.807. Also, the “relative GAG core protein HA-SDC1 amount per cell number” value in assay [2] was active: 0.378. Also, the “relative mutant VPS33A R498W amount” value in assay [3] was determined as 1.89.

`CN1CCN(c2c(F)cc3c(=O)c(C(=O)O)cn4c3c2OCN4C)CC1` [Marbofloxacin] gave a relative cell viability in assay [1] of 0.967. In addition, the “relative GAG core protein HA-SDC1 amount per cell number” value in assay [2] was inactive: 1.23. In addition, in assay [3], the “relative mutant VPS33A R498W amount” value turned out to be 1.29.

For `O=NN(CCCl)C(=O)NC1CCCCC1` [Lomustine], the relative cell viability in assay [1] came to 0.955. Further, in assay [2], the “relative GAG core protein HA-SDC1 amount per cell number” value was inactive: 0.83. In addition, in assay [3], the “relative mutant VPS33A R498W amount” value stood at 0.785.

On to `CN[C@@H]1[C@H](O)[C@H](NC)[C@H]2O[C@@]3(O)C(=O)C[C@@H](C)O[C@H]3O[C@@H]2[C@H]1O` [Spectinomycin (hydrochloride hydrate)], for which, in assay [1], the relative cell viability was 0.998. In addition, the “relative GAG core protein HA-SDC1 amount per cell number” value in assay [2] was inactive: 0.863. Also, in assay [3], the “relative mutant VPS33A R498W amount” value came out at 1.35.

On to `O[C@@H]1CO[C@H]2[C@@H]1OC[C@@H]2O` [Isosorbide], for which, in assay [1], the relative cell viability turned out to be 0.86. The “relative GAG core protein HA-SDC1 amount per cell number” value in assay [2] was inactive: 1.13. Besides, the “relative mutant VPS33A R498W amount” value in assay [3] came out at 1.21.

In assay [1], `O=S(=O)(O)c1cc(O)ccc1O` [Ethamsylate] showed a relative cell viability of 0.811. Further, the “relative GAG core protein HA-SDC1 amount per cell number” value in assay [2] was inactive: 0.916. In addition, the “relative mutant VPS33A R498W amount” value in assay [3] was found to be 1.36.

For `NC(=O)c1cccnc1` [Nicotinamide], the relative cell viability in assay [1] was 1.06. The “relative GAG core protein HA-SDC1 amount per cell number” value in assay [2] was inactive: 0.896. For the same compound, the “relative mutant VPS33A R498W amount” value in assay [3] worked out at 1.3.

The compound `C[N+](C)(C)CC(=O)O` [Betaine hydrochloride] returned a relative cell viability in assay [1] of 1.08. Moreover, the “relative GAG core protein HA-SDC1 amount per cell number” value in assay [2] is inactive: 1.16. In addition, the “relative mutant VPS33A R498W amount” value in assay [3] is 1.11.

`O=c1[nH]c(=O)n([C@H]2C[C@H](O)[C@@H](CO)O2)cc1F` [Floxuridine]: in assay [1], the relative cell viability was 1.15. The “relative GAG core protein HA-SDC1 amount per cell number” value in assay [2] is inactive: 0.96. Also, in assay [3], the “relative mutant VPS33A R498W amount” value worked out at 0.73.

As for `Clc1ccc2nsnc2c1NC1=NCCN1` [Tizanidine HCl], in assay [1], the relative cell viability is 1.26. Also, the “relative GAG core protein HA-SDC1 amount per cell number” value in assay [2] is inactive: 0.82. The “relative mutant VPS33A R498W amount” value in assay [3] was determined as 0.589.

For the compound `COc1cc(N)c(Cl)cc1C(=O)NC1CCN(CCCOc2ccc(F)cc2)CC1OC` (stereo unspecified) [Cisapride], the relative cell viability in assay [1] stood at 1.38. Also, the “relative GAG core protein HA-SDC1 amount per cell number” value in assay [2] was inactive: 1.12. For the same compound, the “relative mutant VPS33A R498W amount” value in assay [3] was found to be 0.91.

Take `Cc1c(C)c2c(c(C)c1O)CCC(C)(CCCC(C)CCCC(C)CCCC(C)C)O2` (racemic) [DL-α-Tocopherol]: in assay [1], the relative cell viability was 1.02. In addition, the “relative GAG core protein HA-SDC1 amount per cell number” value in assay [2] is inactive: 0.887. Further, in assay [3], the “relative mutant VPS33A R498W amount” value was found to be 1.48.

In assay [1], `CCCCc1nc(Cl)c(CO)n1Cc1ccc(-c2ccccc2-c2nnn[nH]2)cc1` [Losartan Potassium (DuP 753)] gave a relative cell viability of 1.13. Moreover, the “relative GAG core protein HA-SDC1 amount per cell number” value in assay [2] is inactive: 1.2. Moreover, in assay [3], the “relative mutant VPS33A R498W amount” value stood at 1.33.

As for `C[C@H]1[C@H](C)CC[C@]2(C(=O)O)CC[C@]3(C)C(=CC[C@@H]4[C@@]5(C)C[C@@H](O)[C@H](O)[C@@](C)(CO)[C@@H]5[C@H](O)C[C@]43C)[C@H]12` [Madecassic acid], the relative cell viability in assay [1] came to 1.06. In addition, in assay [2], the “relative GAG core protein HA-SDC1 amount per cell number” value was inactive: 0.572. Also, the “relative mutant VPS33A R498W amount” value in assay [3] was determined as 1.4.

In assay [1], `COc1cc2c(cc1OC)CC(=O)N(CCCN(C)C[C@H]1Cc3cc(OC)c(OC)cc31)CC2` [Ivabradine HCl] came in with a relative cell viability of 1.2. Further, the “relative GAG core protein HA-SDC1 amount per cell number” value in assay [2] is inactive: 1.09. For the same compound, in assay [3], the “relative mutant VPS33A R498W amount” value turned out to be 1.24.
